Data on 1 molecule can be found in patent publication US9670264B2, “Water soluble G-protein coupled receptor” (The Trustees of The University of Pennsylvania, priority 2013, dated 2017).

The nature of the data set: Secondary structure by circular dichroism (CD). Conditions: protein isolated from E. coli lysate. The data set is classed as physicochemical. From the text:
The CD spectra indicated predominantly helical structures with a helical secondary structure content of ˜48% (estimations based on the molar ellipticity over the range 205 to 260 nm). The comparison of the helical content with that of the native human MUR expressed in yeast system in the presence of high concentration of detergent (0.1% SDS) is presented in Table 1.
In general terms: Circular dichroism is widely used to follow secondary structure.

B1: BAD4: engineered more water soluble human β2 adrenergic receptor (protein)
chain: MAHHHHHHVMGQPGNGSAFLLAPNGSHAPDHDVTQQRDEEWVKGTGRQMSEIVKKIVEGNKLVITAIQKFERLQTVTNYFITSLAEADLKMGEAVVPYGAAHILKKMWTYGNRWCEYWTSIDVLTVTASIETLDVIAEDRYKAITSPFKYQSELTKNKAREEIKKVWERSGKTSFDPIQKHKYRATHQEAINCYANETCCDFFTNQDYAKKSSKQSFYEPLQKMKDVYSRVEQEAKRQLQKIDKSEGRFHVQNLSQVEQDGRTGHGLRRSSKESLKEHKALKTLGEIMGTFTRQWDPFFKVNEEHVKQDNKIRKEEYIKLNWEGYKNSGENPKIYERSPDFRIAFQELRSLRRSSLKAYGNGYSSNGNTGEQSGYHVEQEKENKLLAEDLPGTEDFVGHQGTVPSDNIDSPGRNASTNDSLL
Consider B1, for which the “helical structural content by CD spectroscopy (in words)” value is listed as “high alpha-helical content”.
